This passage reports cytotoxicity call and growth inhibition call results from the antibiotic and cytotoxicity screens of Wong et al. (2023).

The test system of one assay is HSkMC. In words: cytotoxicity call (relative viability < 0.9). The conditions noted are these: 10 µM.
A further assay deals with HepG2. The assay is described as follows: cytotoxicity call (relative viability < 0.9). The conditions noted are these: 10 µM.
A further assay has as its system S. aureus RN4220. The assay is described as follows: growth inhibition call (relative growth <= 0.2). The conditions noted are these: 50 µM.

Some of the results follow.

Take `C[C@H]1CN([C@@H](C)CO)C(=O)Cc2cc(NS(=O)(=O)c3cccs3)ccc2O[C@H]1CN(C)C(=O)Nc1cccc2ccccc12`: the cytotoxicity call in the assay on HSkMC and with HepG2 was “inactive” throughout. Besides, the growth inhibition call in the assay with S. aureus RN4220 was “inactive”.
As to `COc1cc2c(cc1OC)-c1onc(-c3ccc(OCCO[Si](C(C)C)(C(C)C)C(C)C)cc3)c1CCCN(C[C@@H](C)O)CC2`, the cytotoxicity call with HSkMC and with HepG2 was “inactive” throughout. The growth inhibition call with S. aureus RN4220 was “inactive”.
Regarding `C[C@@H]1[C@@H]([Si](C)(C)F)[C@H](CCO)O[C@@]12C(=O)N(Cc1ccccc1)c1ccc(N(C=O)c3ccccc3)cc12`, the cytotoxicity call in the assay with HSkMC and in the assay with HepG2 was “inactive” in each case. Moreover, in the assay on S. aureus RN4220, the growth inhibition call is “inactive”.
Regarding `O=C1c2ccccc2[C@](Cc2ccccc2I)(C(=O)NCc2ccccc2)[C@H](c2ccc(CO)cc2)N1Cc1ccccc1C(F)(F)F`, the cytotoxicity call in the assay with HSkMC and in the assay on HepG2 was “inactive” in each case. Further, the growth inhibition call with S. aureus RN4220 was “inactive”.
Regarding `CCC(=O)N[C@@H]1C=C[C@@H](CC(=O)OC)O[C@@H]1CO`, the cytotoxicity call in the assay with HSkMC and with HepG2 was “inactive” in each case. The growth inhibition call with S. aureus RN4220 is “inactive”.
As for `CCCNC(=O)c1cc2c(c(-c3cccc(-c4cc5ccccc5o4)c3)n1)[C@H](CCO)N(C(=O)NC(C)C)C2`, the cytotoxicity call in the assay on HSkMC and in the assay on HepG2 was “inactive” each time. For the same compound, the growth inhibition call in the assay on S. aureus RN4220 is “inactive”.
For the compound `C[C@H]1CN([C@@H](C)CO)C(=O)Cc2cc(NS(=O)(=O)c3ccccc3)ccc2O[C@@H]1CN(C)Cc1ccc(-c2ccccc2)cc1`, the cytotoxicity call in the assay on HSkMC was “active”. In the assay with HepG2, the cytotoxicity call is “inactive”. Moreover, the growth inhibition call with S. aureus RN4220 was “inactive”.
As for `COc1ccccc1S(=O)(=O)N1C[C@@H](O)COC[C@H]2O[C@H](CC(=O)O)CC[C@@H]21`, the cytotoxicity call with HSkMC and with HepG2 was “inactive” throughout. Besides, the growth inhibition call with S. aureus RN4220 is “inactive”.
For `CCCC(=O)Nc1ccc2c(c1)C(=O)N(C)C[C@@H](OC)[C@H](C)CN(Cc1cc(-c3ccccc3)on1)[C@H](C)CO2`, the cytotoxicity call with HSkMC and in the assay on HepG2 was “inactive” each time. In addition, in the assay with S. aureus RN4220, the growth inhibition call was “inactive”.
Take `CC(C)CC#Cc1cnc2c(c1)C(=O)N([C@@H](C)CO)C[C@@H](C)[C@H](CN(C)S(=O)(=O)c1ccccc1)O2`: the cytotoxicity call with HSkMC and in the assay on HepG2 was “inactive” each time. In the assay with S. aureus RN4220, the growth inhibition call was “inactive”.
Consider `COc1ccc(S(=O)(=O)N(C)C[C@@H]2Oc3cc(C#CC4CCCC4)ccc3S(=O)(=O)N([C@@H](C)CO)C[C@@H]2C)cc1`, for which the cytotoxicity call in the assay on HSkMC and in the assay on HepG2 was “inactive” each time. Moreover, in the assay with S. aureus RN4220, the growth inhibition call was “inactive”.
With `C[C@H]1CN([C@@H](C)CO)C(=O)c2cccc(NS(=O)(=O)c3ccccc3)c2O[C@H]1CN(C)C(=O)Nc1cccc2ccccc12`, the cytotoxicity call in the assay with HSkMC and in the assay on HepG2 was “inactive” throughout. Moreover, in the assay with S. aureus RN4220, the growth inhibition call is “inactive”.
On to `C=CC[C@]1(C(=O)NCCN2CCOCC2)COC(c2ccc(OCCCO)cc2)=N1`, for which the cytotoxicity call in the assay with HSkMC and with HepG2 was “inactive” throughout. Moreover, in the assay on S. aureus RN4220, the growth inhibition call was “inactive”.
On to `Cc1noc(C)c1S(=O)(=O)Nc1ccc2c(c1)CC(=O)N([C@H](C)CO)C[C@@H](C)[C@@H](CN(C)S(=O)(=O)c1ccc(F)cc1)O2`, for which the cytotoxicity call in the assay with HSkMC and in the assay with HepG2 was “inactive” throughout. The growth inhibition call with S. aureus RN4220 was “inactive”.
As for `CO[C@H]1CN(C)C(=O)c2cc(NC(C)=O)ccc2OC[C@@H](C)N(S(=O)(=O)c2cn(C)cn2)C[C@@H]1C`, the cytotoxicity call with HSkMC and in the assay with HepG2 was “inactive” each time. Moreover, the growth inhibition call with S. aureus RN4220 was “inactive”.
With `CC[C@@]1(O)C(=O)OCc2c1cc1n(c2=O)Cc2c-1nc1cc(F)c(C)c3c1c2[C@@H](N)CC3`, the cytotoxicity call with HSkMC and in the assay on HepG2 was “active” each time. In addition, the growth inhibition call in the assay with S. aureus RN4220 is “inactive”.
On to `CCC(=O)N[C@H]1CC[C@@H](CC(=O)OC)O[C@H]1CO`, for which the cytotoxicity call in the assay on HSkMC and in the assay with HepG2 was “inactive” in each case. Besides, the growth inhibition call in the assay with S. aureus RN4220 is “inactive”.
Consider `COc1ccc2c3c(n(c2c1)C)[C@H](CO)N(CC1CCOCC1)C[C@]13CCN(CC1)C(=O)c1cnccn1`, for which the cytotoxicity call in the assay on HSkMC and with HepG2 was “inactive” in each case. The growth inhibition call in the assay with S. aureus RN4220 is “inactive”.
On to `CC(C)(C)[S@@](=O)N1Cc2cc(C(=O)NCc3ccncc3)nc(-c3cccc(-c4cccc(C#N)c4)c3)c2[C@H]1CCO`, for which the cytotoxicity call in the assay with HSkMC and in the assay on HepG2 was “inactive” in each case. Further, in the assay with S. aureus RN4220, the growth inhibition call was “inactive”.
Turning to `CO[C@@H]1CN(C)C(=O)c2ccc(NS(C)(=O)=O)cc2OC[C@H](C)N(C(=O)c2ccc3c(c2)OCO3)C[C@@H]1C`, the cytotoxicity call in the assay on HSkMC and in the assay with HepG2 was “inactive” throughout. Moreover, in the assay with S. aureus RN4220, the growth inhibition call is “inactive”.
`C=CCNC(=O)[C@@H]1[C@H]2C(=O)O[C@H](c3ccccc3)[C@H](c3ccccc3)N2[C@H](c2ccccc2OCCO)[C@@]12C(=O)N(C(=O)OCCOC)c1ccc(C#Cc3ccc(OC)cc3)cc12`: the cytotoxicity call in the assay on HSkMC and in the assay with HepG2 was “inactive” each time. For the same compound, in the assay on S. aureus RN4220, the growth inhibition call is “inactive”.
For `C[C@H](CO)N1C[C@H](C)[C@@H](CN(C)Cc2ccc(F)cc2)Oc2cc(Br)ccc2S1(=O)=O`, the cytotoxicity call in the assay on HSkMC and in the assay on HepG2 was “inactive” each time. The growth inhibition call in the assay on S. aureus RN4220 is “inactive”.
Consider `COc1ccc(NC(=O)Nc2ccc3c(c2)C(=O)N([C@H](C)CO)C[C@H](C)[C@@H](CN(C)Cc2ccncc2)OCCCC[C@@H](C)O3)cc1`, for which the cytotoxicity call with HSkMC and in the assay with HepG2 was “inactive” throughout. Also, the growth inhibition call in the assay on S. aureus RN4220 was “inactive”.
For `C[C@H](CO)N1C[C@H](C)[C@@H](CN(C)C(=O)c2cccnc2)Oc2ncc(-c3ccc(C(=O)N(C)C)cc3)cc2C1=O`, the cytotoxicity call in the assay on HSkMC (human skeletal muscle cells) and in the assay on HepG2 was “inactive” each time. The growth inhibition call in the assay with S. aureus RN4220 is “inactive”.
In the case of `O=C(C[C@H]1C[C@@H]2c3cc(NS(=O)(=O)c4ccc(F)cc4)ccc3O[C@@H]2[C@@H](CO)O1)N1CCCCC1`, the cytotoxicity call in the assay with HSkMC and in the assay with HepG2 was “inactive” each time. Also, the growth inhibition call with S. aureus RN4220 is “inactive”.
